Measured values as given in patent publication US20240327497A1.
Substitutions are numbered along the chain they refer to. Names may count otherwise. The source holds more than one record for some entries. The other results are left out here. The source may hold further records. For part of these data: Values that stand side by side seem to repeat one measurement on other runs, samples or individuals. For part of these data: Values given together read as repeated measurements on other runs, samples or individuals; one of them may be the mean.

B1: canine IgGB Fc (CH2-CH3) T250A with N-terminal SASA tag (Fc fusion, part only; not given: SASA tag, not shown: another chain or arm of the molecule; small tags and cut ends)
Fc: APEMLGGPSVFIFPPKPKDALLIARTPEVTCVVVDLDPEDPEVQISWFVDGKQMQTAKTQPREEQFNGTYRVVSVLPIGHQDWLKGKQFTCKVNNKALPSPIERTISKARGQAHQPSVYVLPPSREELSKNTVSLTCLIKDFFPPDIDVEWQSNGQQEPESKYRTTPPQLDEDGSYFLYSKLSVDKSRWQRGDTFICAVMHEALHNHYTQESLSHSPGK
B2: canine IgGB Fc (CH2-CH3) A254S with N-terminal SASA tag (Fc fusion, part only; not given: SASA tag, not shown: another chain or arm of the molecule; small tags and cut ends)
Fc: B1 Fc with A20T, A24S
B3: canine IgGB Fc (CH2-CH3) G309A with N-terminal SASA tag (Fc fusion, part only; not given: SASA tag, not shown: another chain or arm of the molecule; small tags and cut ends)
Fc: B1 Fc with A20T, G79A
B4: canine IgGB Fc (CH2-CH3) G309P with N-terminal SASA tag (Fc fusion, part only; not given: SASA tag, not shown: another chain or arm of the molecule; small tags and cut ends)
Fc: B1 Fc with A20T, G79P
B5: canine IgGB Fc (CH2-CH3) K315A with N-terminal SASA tag (Fc fusion, part only; not given: SASA tag, not shown: another chain or arm of the molecule; small tags and cut ends)
Fc: B1 Fc with A20T, K85A
B6: canine IgGB Fc (CH2-CH3) Q285A with N-terminal SASA tag (Fc fusion, part only; not given: SASA tag, not shown: another chain or arm of the molecule; small tags and cut ends)
Fc: B1 Fc with A20T, Q55A
B7: canine IgGB Fc (CH2-CH3) H433A with N-terminal SASA tag (Fc fusion, part only; not given: SASA tag, not shown: another chain or arm of the molecule; small tags and cut ends)
Fc: B1 Fc with A20T, H205A
B8: canine IgGB Fc (CH2-CH3) Y436A with N-terminal SASA tag (Fc fusion, part only; not given: SASA tag, not shown: another chain or arm of the molecule; small tags and cut ends)
Fc: B1 Fc with A20T, Y208A
B9: wild-type canine IgGB Fc (CH2-CH3) with N-terminal SASA tag (Fc fusion, part only; not given: SASA tag, not shown: another chain or arm of the molecule; small tags and cut ends)
Fc: B1 Fc with A20T
B10: canine IgGB Fc (CH2-CH3) T256A with N-terminal SASA tag (Fc fusion, part only; not given: SASA tag, not shown: another chain or arm of the molecule; small tags and cut ends)
Fc: B1 Fc with A20T, T26A
B11: canine IgGB Fc (CH2-CH3) L252A with N-terminal SASA tag (Fc fusion, part only; not given: SASA tag, not shown: another chain or arm of the molecule; small tags and cut ends)
Fc: B1 Fc with A20T, L22A
B12: canine IgGB Fc (CH2-CH3) M428A with N-terminal SASA tag (Fc fusion, part only; not given: SASA tag, not shown: another chain or arm of the molecule; small tags and cut ends)
Fc: B1 Fc with A20T, M200A
B13: canine IgGB Fc (CH2-CH3) N434W with N-terminal SASA tag (Fc fusion, part only; not given: SASA tag, not shown: another chain or arm of the molecule; small tags and cut ends)
Fc: B1 Fc with A20T, N206W
B14: canine IgGB Fc (CH2-CH3) P307A with N-terminal SASA tag (Fc fusion, part only; not given: SASA tag, not shown: another chain or arm of the molecule; small tags and cut ends)
Fc: B1 Fc with A20T, P77A

Legend:
[1] = target: canine FcRn (FcRn large subunit with canine beta-2-microglobulin) (canine); experiment: SPR pH 5.5, SASA-Fc captured on BSA, FcRn 400 nM
[2] = target: canine FcRn (FcRn large subunit with canine beta-2-microglobulin) (canine); experiment: SPR pH 5.5, SASA-Fc captured on BSA, FcRn 200 nM

Row | Binder | koff [1] | kon [1] | other results
1 | B1 | 6.24 s⁻¹ and 1.27 s⁻¹ [lines of one column] | 1.9e+07 M⁻¹ s⁻¹ and 3.9e+06 M⁻¹ s⁻¹ [lines of one column] | –
2 | B2 | 2.69 s⁻¹ and 0.758 s⁻¹ [lines of one column] | 7.9e+06 M⁻¹ s⁻¹ and 2.4e+06 M⁻¹ s⁻¹ [lines of one column] | –
3 | B3 | 0.348 s⁻¹ and 0.0719 s⁻¹ [lines of one column] | 1.4e+06 M⁻¹ s⁻¹ and 244000 M⁻¹ s⁻¹ [lines of one column] | –
4 | B4 | – | – | Kd [2]: 635, 434, 637, 718 nM [lines of one column]; koff [2]: 0.239, 0.242, 0.132, 0.145 s⁻¹ [lines of one column]; kon [2]: 377000, 558000, 207000, 202000 M⁻¹ s⁻¹ [lines of one column]
5 | B5 | – | 4.1e+07 M⁻¹ s⁻¹ and 245000 M⁻¹ s⁻¹ [lines of one column] | –
6 | B6 | – | 328000 M⁻¹ s⁻¹ and 1.4e+08 M⁻¹ s⁻¹ [lines of one column] | –
7 | B7 | – | 862000 M⁻¹ s⁻¹ and 278000 M⁻¹ s⁻¹ [lines of one column] | –
8 | B8 | – | 1e+06 M⁻¹ s⁻¹ and 244000 M⁻¹ s⁻¹ [lines of one column] | –
9 | B9 | 1.16, 0.375, 0.185, 0.314, 0.188, 0.201, 0.16, 0.152, 0.166, 0.479, 0.135, 0.196 s⁻¹ [lines of one column] | 3.6e+06 M⁻¹ s⁻¹, 632000 M⁻¹ s⁻¹, 442000 M⁻¹ s⁻¹, 587000 M⁻¹ s⁻¹, 386000 M⁻¹ s⁻¹, 391000 M⁻¹ s⁻¹, 265000 M⁻¹ s⁻¹, 310000 M⁻¹ s⁻¹, 269000 M⁻¹ s⁻¹, 780000 M⁻¹ s⁻¹, 290000 M⁻¹ s⁻¹, 173000 M⁻¹ s⁻¹ [lines of one column] | Kd [1]: 321 nM, 592 nM, 418 nM, 534 nM, 488 nM, 514 nM, 606 nM, 489 nM, 616 nM, 614 nM, 465 nM, 1.13 µM [lines of one column]; WT KD Avg/Variant KD [1]: 1.76, 0.96, 1.35, 1.06, 1.16, 1.1, 0.93, 0.92, 1.22, 0.5 [lines of one column]
10 | B10 | – | 371000 M⁻¹ s⁻¹ and 2.4e+08 M⁻¹ s⁻¹ [lines of one column] | –
11 | B11 | 0.0969 s⁻¹ and 0.567 s⁻¹ [lines of one column] | 332000 M⁻¹ s⁻¹ and 2.4e+06 M⁻¹ s⁻¹ [lines of one column] | –
12 | B12 | 0.169 s⁻¹ and 0.532 s⁻¹ [lines of one column] | – | –
13 | B13 | – | – | koff [2]: 0.028 s⁻¹ and 0.318 s⁻¹ [lines of one column]; kon [2]: 693000 M⁻¹ s⁻¹ and 4.2e+06 M⁻¹ s⁻¹ [lines of one column]
14 | B14 | – | 2.9e+08 M⁻¹ s⁻¹ and 3.7e+06 M⁻¹ s⁻¹ [lines of one column] | –
